Values come from read counts of a selection and are noisy.
System: NB7
Assay: fold depletion of shRNA, plasmid library share / infected cells without Dox share (9 days) (ratio); higher = more depleted after infection (more toxic, leaky expression from a Tet-inducible vector; NB7 is a neuroblastoma line without caspase-8)
[1] = shRNA pool: CD95 ORF + CD95 3'UTR + Venus libraries
[2] = shRNA pool: CD95L ORF + CD95L 3'UTR + Venus libraries
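Further: shRNA barcodes quantified by deep sequencing of PCR amplicons from cellular DNA, counts expressed as percent of each subpool, ratio averaged over two biological duplicates.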

| Sequence | fold depletion of shRNA [1] | fold depletion of shRNA [2] |
| --- | --- | --- |
| GAATGACAATGTCCAAGACAC | 1.22 | – |
| GAATGCACACTCACCAGCAAC | 0.969 | – |
| GAATGGTGTCAATGAAGCCAA | 3.48 | – |
| GAATGTAATCAGTGTATGTTA | 0.907 | – |
| GAATGTAGATATTGTGAAGTA | – | 0.795 |
| GAATGTTGTATTCAGTGAGGG | – | 2.74 |
| GAATTATAAAATATAGGTAAA | 0.663 | – |
| GAATTCACATAGAAAACATTA | 1.04 | – |
| GAATTGAGGAAGACTGTTACT | 0.924 | – |
| GAATTGCTCTTGTCATACCCC | 1.24 | – |
| GAATTTAAATAAGGCTCTACC | 0.901 | – |
| GAATTTTAAGAAATAATATTT | 1.33 | – |
| GACAAAGCCCATTTTTCTTCC | 1.75 | – |
| GACAAATGGAGGAATATGACG | – | 1.21 |
| GACAACCACTACCTGAGCTAC | 2.24 | 2.16 |
| GACAAGCAGAAGAACGGCATC | 0.984 | 1.5 |
| GACAATCAACTCTAATAGTGC | – | 3.11 |
| GACAATGTCCAAGACACAGCA | 2.15 | – |
| GACACAGCAGAACAGAAAGTT | 1.79 | – |
| GACACATTGATTAAAGATCTC | 0.765 | – |
| GACACCCTGGTGAACCGCATC | 1.52 | 1.61 |
| GACACCTATGGAATTGTCCTG | – | 3.07 |
| GACACCTTTTAACTCACCTCT | – | 1.4 |
| GACACTAAGTCAAGTTAAAGG | 1.08 | – |

| Sequence | fold depletion of shRNA [1] | fold depletion of shRNA [2] |
| --- | --- | --- |
| GACAGCAGTGCCAGCTCTCCC | – | 0.659 |
| GACATCAACTCCAAGGGATTG | 2.28 | – |
| GACATGAACCAAGTGGACCTT | – | 3.89 |
| GACATGGCTTAGAAGTGGAAA | 1.19 | – |
| GACATGTCATGAACCCATGTT | 8.66 | – |
| GACATTACTAGTGACTCAGAA | 1.01 | – |
| GACCACAGGGTTCAAAATGTC | – | 2.12 |
| GACCACATGAAGCAGCACGAC | 1.28 | 0.841 |
| GACCACCCTGGGCTACGGCCT | 1.37 | 1.94 |
| GACCACTACCAGCAGAACACC | 1.92 | – |
| GACCCAGAATACCAAGTGCAG | 1.46 | – |
| GACCCCAACGAGAAGCGCGAT | 0.869 | 1.2 |
| GACCCGCGCCGAGGTGAAGTT | 0.524 | 0.674 |
| GACCCTCCTACCTCTGGTTCT | 1.42 | – |
| GACCCTGAAGCTGATCTGCAC | 1.05 | 0.744 |
| GACCCTTGCACCAAATGTGAA | 1.61 | – |
| GACCGCCGCCGGGATCACTCT | 1.34 | 0.786 |
| GACCTGAGGATTTAAGGGATG | – | 2.93 |
| GACCTTGAGACCACAGGGTTC | – | 1.46 |
| GACCTTTGCACAGTTTATTGG | 0.866 | – |
| GACCTTTTGCTGAAATATCAG | 2.48 | – |
| GACGACGGCAACTACAAGACC | 0.864 | 0.697 |
| GACGGAAGAACATAGAACTCT | – | 1.12 |
| GACGGCAACATCCTGGGGCAC | 0.66 | 0.732 |

| Sequence | fold depletion of shRNA [1] | fold depletion of shRNA [2] |
| --- | --- | --- |
| GACGGCAACTACAAGACCCGC | 0.89 | 0.667 |
| GACGGCCCCGTGCTGCTGCCC | 0.706 | 0.698 |
| GACGGCGACGTAAACGGCCAC | 1.22 | 0.674 |
| GACGGCGGCGTGCAGCTCGCC | 0.743 | 0.557 |
| GACGTAAACGGCCACAAGTTC | 1 | 0.738 |
| GACGTTTTTCGGCTTATATAA | – | 1.35 |
| GACTAAAGAGAGAATGTAGAT | – | 0.707 |
| GACTAGAGGCTTGCATAATAA | – | 1.19 |
| GACTATCATCCTCAAGGACAT | 1.42 | – |
| GACTATTATATATGTGTATGC | 1.1 | – |
| GACTCAGAAAATTCAAACTTC | 1.04 | – |
| GACTCAGAACTTGGAAGGCCT | 0.893 | – |
| GACTCATTTCATTCCTAACAC | – | 1.85 |
| GACTGACATCAACTCCAAGGG | 2.5 | – |
| GACTGCACAGTCAATGGGGAT | 3.82 | – |
| GACTGCCCTTAGAAATTCTAG | 4.2 | – |
| GACTGCGTGCCCTGCCAAGAA | 1.25 | – |
| GACTGTCTTTCAGATACATGG | – | 1.05 |
| GACTGTTACTACAGTTGAGAC | 1.08 | – |
| GACTTCAAGGAGGACGGCAAC | 0.352 | 0.496 |
| GACTTCTTCAAGTCCGCCATG | 2.75 | 0.642 |
| GACTTGAGTAAATATATCACC | 1.17 | – |
| GAGAAAATTCAGACTATCATC | 1.73 | – |
| GAGAAAGGAAGTACAGAAAAC | 1.11 | – |

| Sequence | fold depletion of shRNA [1] | fold depletion of shRNA [2] |
| --- | --- | --- |
| GAGAAAGTAGCTTTGTGACAT | 1.29 | – |
| GAGAAGATCATATTTATGTAA | 0.705 | – |
| GAGAAGCAAATAGGCCACCCC | – | 0.467 |
| GAGAAGCACTTTGGGATTCTT | – | 0.751 |
| GAGAAGCATGAAAAAGCAGCT | – | 0.483 |
| GAGAAGCGCGATCACATGGTC | 0.933 | 0.746 |
| GAGAATGTAGATATTGTGAAG | – | 1.07 |
| GAGAATGTTGTATTCAGTGAG | – | 1.55 |
| GAGACCACAGGGTTCAAAATG | – | 6.57 |
| GAGACTCAGAACTTGGAAGGC | 1.49 | – |
| GAGAGAATGTAGATATTGTGA | – | 1.37 |
| GAGAGATGTTTTGGGGACTCA | – | 9.46 |
| GAGAGTATTACTAGAGCTTTG | 0.915 | – |
| GAGAGTATTTAGGCAGATTGA | – | 2.56 |
| GAGATACTAACTGCTCTCAGA | 1.18 | – |
| GAGATCAAGAATGACAATGTC | 3.25 | – |
| GAGATTTTACCATATTTCTAA | 0.943 | – |
| GAGCAAAGACCCCAACGAGAA | 1.09 | 1.59 |
| GAGCAAGGGCGAGGAGCTGTT | 1.05 | 1.61 |
| GAGCAGGAGAGTATTACTAGA | 0.77 | – |
| GAGCCAACATATTTGTAGATT | 1.21 | – |
| GAGCCACAAGGTCTACATGAG | – | 1.02 |
| GAGCGCACCATCTTCTTCAAG | 0.939 | 1.03 |
| GAGCTACCAGTCCGCCCTGAG | 1.3 | 1.69 |

| Sequence | fold depletion of shRNA [1] | fold depletion of shRNA [2] |
| --- | --- | --- |
| GAGCTACTGCACTACTGGGCA | – | 2.55 |
| GAGCTCTCTCTGGTCAATTTT | – | 0.697 |
| GAGCTGAAGGGCATCGACTTC | 1.66 | 2.93 |
| GAGCTGAGGAAAGTGGCCCAT | – | 0.268 |
| GAGCTGGACGGCGACGTAAAC | 1.95 | 1.56 |
| GAGCTGTTCACCGGGGTGGTG | 1.92 | 2.03 |
| GAGCTTTGCCACCTCTCCATT | 0.338 | – |
| GAGGAAAGTGGCCCATTTAAC | – | 0.345 |
| GAGGAACTCTAAGTATCCCCA | – | 1.18 |
| GAGGAAGACTGTTACTACAGT | 1.59 | – |
| GAGGAATATGACGGAAGAACA | – | 1.55 |
| GAGGACGGCAACATCCTGGGG | 0.848 | 1.89 |
| GAGGACGGCGGCGTGCAGCTC | 0.469 | – |
| GAGGAGCTGTTCACCGGGGTG | 1.82 | 0.906 |
| GAGGATGAAAGATTAAGATTA | 1.26 | – |
| GAGGATTTAAGGGATGGAAAA | – | 1.18 |
| GAGGCCAATGCCCCACTGGCA | – | 1.87 |
| GAGGCTTGCATAATAAGCTAA | – | 1.75 |
| GAGGGAACCACAGCACAGGCC | – | 0.3 |
| GAGGGAGAAGCATGAAAAAGC | – | 0.889 |
| GAGGGCGACACCCTGGTGAAC | 1.05 | 0.491 |
| GAGGGCGAGGGCGATGCCACC | 1.87 | – |
| GAGGGCGATGCCACCTACGGC | 2.29 | – |
| GAGGGGAAGATGATGAGCTAC | – | 1 |

| Sequence | fold depletion of shRNA [1] | fold depletion of shRNA [2] |
| --- | --- | --- |
| GAGGGTCTTCTTACATGCATT | – | 2.63 |
| GAGGTCAAGTAAGAAGACATG | – | 0.786 |
| GAGGTGAAGTTCGAGGGCGAC | 1.43 | 0.84 |
| GAGTAAATATATCACCACTAT | 0.729 | – |
| GAGTACAACTACAACAGCCAC | 1.89 | 2.42 |
| GAGTACACAGACAAAGCCCAT | 0.928 | – |
| GAGTATATGCAATTAGTGTTT | 0.856 | – |
| GAGTATTACTAGAGCTTTGCC | 1.58 | – |
| GAGTATTTAGGCAGATTGAAA | – | 1.35 |
| GAGTCATGACACTAAGTCAAG | 1.98 | – |
| GAGTGAAAAACAACAAATTCA | 1.04 | – |
| GAGTGAAGTATAAGAAGGGTG | – | 0.521 |
| GAGTGCAGAATTTAAATAAGG | 0.88 | – |
| GAGTGTATGCAGAGGATGAAA | 2.4 | – |
| GAGTTCGTGACCGCCGCCGGG | 0.563 | 0.641 |
| GATAAAATAGATTCTTATTTT | 1.16 | – |
| GATAAGCAAGAGAGATGTTTT | – | 2.2 |
| GATAATTCTAGAGATTTTACC | 1.12 | – |
| GATACATGGTTGTGACCTGAG | – | 1.77 |
| GATACCTGGAACCACCTAAAG | 4.14 | – |
| GATACTAACTGCTCTCAGAGA | 1.01 | – |
| GATAGTTATAAACTGAAGCAG | 0.953 | – |

From the supplement of paper PMC5655136
